Among all 48,000 compounds or so, about 550 (1.1%) were called active. Not shown: some 4% with an inconclusive outcome. Cut-off read from the data, not from the text of the source: active = potency below about 15 µM; inconclusive = mostly about 16 µM to 33 µM; inactive = weaker than that. Some of the results follow.
What follows are compounds tested against Lysosomal acid glucosylceramidase (Homo sapiens) (UniProt P04062) (assay: Glucocerebrosidase). Conditions: purified enzyme, resorufin glucoside fluorescence (screen aimed at inhibitors), 20 min.
Text: NCGC Assay Overview: Beta-glucocerebrosidase catalyzes the hydrolysis of beta-glucocerebroside to glucose and ceramide. The inherited deficiency of beta-glucocerebrosidase results in Gaucher disease, which is characterized by a wide variety of symptoms including hepatosplenomegaly, anemia, thrombocytopenia, bony lesions and bone marrow infiltration with characteristic storage cells, known as Gaucher cells. There are also forms of the disorder affecting the central nervous system. Patients with the same genotypes can manifest with diverse clinical presentations and it is believed that improper folding and trafficking of beta-glucocerbrosidase may contribute to the phenotypes observed. Low molecular weight molecules, acting as chaperones, may potentially restore trafficking of misfolded beta-glucocerebrosidase from the endoplasmic reticulum to the lysosomes, thereby enhancing functional lysosomal beta-glucocerebrosidase activity. Using normal beta-glucocerebrosidase, an assay was developed to screen for small molecule inhibitors that could potentially act as molecular chaperones on the mutant forms [developed with NIH investigator Dr. Ellen Sidransky's laboratory]. Two pro-fluorescent substrates were chosen for two screens against a small molecule library. One beta-glucocerebrosidase assay used Resorufin beta-D-Glucopyranoside (Marker Gene Technology Inc.), generating a red fluorescent product. The second assay used Fluorescein di-beta-D-Glucopyranoside, generating a blue fluorescent product. […] The IC50 values of Conduritol B Epoxide, a known glucocerebrosidase inhibitor, were determined to be 87.5 uM and 117 uM, respectively. The use of two difference pro-fluorescent substrates in the screens helped to eliminate false positives. All compounds were screened in a titration series resulting in AC50s (e.g., IC50s or EC50s).
NCGC Assay Protocol Summary: Both enzyme and substrate were diluted in buffer composed of 50mM citric acid/KH2PO4, 10mM sodium taurocholate and 0.01% tween-20 at pH 5.9. The final concentration of the enzyme was 0.2 nM in both assays. The compound library was titrated in 7 to 15 concentrations for the primary screens with a final concentration ranging from 0.6 nM to 50 uM. This particular assay protocol is for the "red" substrate, and it was performed in 1536-well plate format as follows: Red fluorescence substrate assay: 2 uL enzyme 23 nL compound 1 uL substrate (final concentration of 30 uM) Incubate at room temperature (RT) for 20 minutes Read the plate in Viewlux plate reader (Ex=548(7) and Em=600(10)).
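Note: the screen sought inhibitors.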
Potency is the fitted concentration of half-maximal effect.

UniProt P04062, sequence (P04062 whole entry, looked up): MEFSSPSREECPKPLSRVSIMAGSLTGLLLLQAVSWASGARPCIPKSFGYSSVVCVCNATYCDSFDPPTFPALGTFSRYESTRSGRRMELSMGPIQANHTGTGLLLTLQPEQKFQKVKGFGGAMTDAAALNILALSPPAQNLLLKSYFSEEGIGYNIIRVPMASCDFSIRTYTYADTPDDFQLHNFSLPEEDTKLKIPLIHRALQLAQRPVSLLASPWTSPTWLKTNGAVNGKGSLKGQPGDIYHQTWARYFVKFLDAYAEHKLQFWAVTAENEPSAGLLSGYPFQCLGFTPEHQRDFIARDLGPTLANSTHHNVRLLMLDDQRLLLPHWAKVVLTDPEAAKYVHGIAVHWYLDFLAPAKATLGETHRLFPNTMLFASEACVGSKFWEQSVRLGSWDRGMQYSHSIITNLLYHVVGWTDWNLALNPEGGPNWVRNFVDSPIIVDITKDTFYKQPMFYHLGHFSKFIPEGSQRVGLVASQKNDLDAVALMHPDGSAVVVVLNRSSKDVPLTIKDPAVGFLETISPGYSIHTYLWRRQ

| SMILES | Potency |
| --- | --- |
| COc1ccccc1-c1nnc2n1N=C(C(C)(C)C)CS2 | inactive: > 76.9 µM |
| CCC(C)[C@H](NC(=O)NC1CC1)C(=O)O (stereo not given in full) | inactive: > 76.9 µM |
| Cc1ccccc1Cn1cnc2c(cnn2C(C)(C)C)c1=O | inactive: > 76.9 µM |
| Cc1ccc(S(=O)(=O)C2(C(=O)Nc3ccc(F)cc3)CC2)cc1 | inactive: > 76.9 µM |
| Cn1nnnc1SCC(=O)Nc1c(Cl)cccc1Cl | inactive: > 76.9 µM |
| Cc1ccc(-n2ncc(C#N)c2/N=C/N2CCN(C)CC2)cc1 | inactive: > 76.9 µM |
| COCC(=O)Nc1ccc(Nc2ccccc2)cc1 | inactive |
| O=C(O)C1C2CCC(C2)C1C(=O)NCc1ccccn1 (stereo not given) | inactive: > 76.9 µM |
| Cc1cc(C(=O)Nc2nc3ccc(S(C)(=O)=O)cc3s2)c(C)o1 | inactive: > 76.9 µM |
| COc1cc(Cl)c(C)cc1NC(=O)CSc1nnc(-c2cccnc2)n1Cc1ccco1 | inactive: > 76.9 µM |
| CNc1nnc(-c2ccncc2)s1 | inactive: > 76.9 µM |
| CNC(=O)c1cc(C)c(-c2ccccc2)s1 | inactive: > 76.9 µM |
| CCc1nnc(NC(=O)CSc2nccn2-c2ccccc2)s1 | inactive: > 76.9 µM |
| O=C(CSc1nnc(SCc2ccc(Cl)cc2)s1)N1CCOCC1 | inactive: > 76.9 µM |
| COc1ccc(-n2c(COc3ccccc3)nnc2SCc2ccc(C#N)cc2)cc1 | inactive: > 76.9 µM |
| O=c1c2ccccc2nc(-c2cccc(Cl)c2)n1O | inactive: > 76.9 µM |
| Cc1ccc(C)c(CN2CCNC2=O)c1 | inactive: > 76.9 µM |
| CCC(c1nnnn1Cc1ccco1)N(CCc1ccccc1)Cc1cc2ccc(OC)cc2[nH]c1=O (stereo not given) | active: 14.2 µM |
| CCCCSc1nnc([C@H](CC(C)C)NC(=O)OC(C)(C)C)o1 | inactive: > 76.9 µM |
| O=C(NC(Cc1ccccc1)C(=O)O)c1ccccc1 (stereo not given) | inactive: > 76.9 µM |

| SMILES | Potency |
| --- | --- |
| COc1ccc(CNCC(=O)Nc2cc(C)nn2-c2nc(C)cc(C)n2)cc1OC | inactive: > 76.9 µM |
| CC(C)Cn1c(CCC(=O)O)ccc1-c1cccs1 | inactive: > 76.9 µM |
| CCOC(=O)CSC1=C(C#N)C(c2ccccc2)C(C(C)=O)=C(C)N1 (stereo not given) | inactive: > 76.9 µM |
| O=C(NCc1ccco1)c1cc(-c2ccccn2)nc2ccccc12 | inactive: > 76.9 µM |
| O=C(NCCCCO)C(F)(F)C(F)(F)C(F)(F)C(=O)NCCCCO | inactive: > 76.9 µM |
| CN(CCO)C(=O)c1cccc2c1-c1ccccc1C2=O | inactive: > 76.9 µM |
| Cc1cc(C)c(C#N)c(N2CCN(Cc3ccc4c(c3)OCO4)CC2)n1 | inactive: > 76.9 µM |
| CC(=O)c1c(C)[nH]c(C(=O)OCC(=O)NCCc2ccc(F)cc2)c1C | inactive: > 76.9 µM |
| Clc1ccccc1OCc1nc(-c2ccncc2)no1 | inactive: > 76.9 µM |
| CCOCC(=O)Nc1nc2ccc(OCC)cc2s1 | inactive: > 76.9 µM |
| CSc1nnc2n(-c3ccccc3)c(=O)c3c4c(sc3n12)CCC4 | inactive: > 76.9 µM |
| O=C(CN1CCC(n2nnc3cc(F)ccc32)CC1)NC1CC1 | inactive: > 76.9 µM |
| O=C(CSc1ccccn1)N1CCN(c2ccccc2)CC1 | inactive: > 76.9 µM |
| CCN1CCCC1CNC(=O)CCc1nc(-c2ccc(C)cc2)no1 (stereo not given) | inactive: > 76.9 µM |
| CC(C1CC1)N(C(=O)NC1CCS(=O)(=O)C1)c1ccccc1 (stereo not given) | inactive: > 76.9 µM |
| Fc1ccccc1CSc1nnc(-c2cnccn2)n1Cc1ccco1 | inactive: > 76.9 µM |
| CCOC(=O)C1=C(C)NC(=O)NC1c1ccc(OC)c(Cl)c1 (stereo not given) | inactive: > 76.9 µM |
| O=C(CN(Cc1ccco1)C(=O)CNS(=O)(=O)c1ccc(F)cc1)NCCc1ccccc1 | inactive: > 76.9 µM |
| Cc1cc(OCC(=O)N2CCOCC2)ccc1NC(=O)C1CCCCC1 | inactive: > 76.9 µM |
| Cc1nc(NC2=NCN(Cc3cccnc3)CN2)nc2c(C)cccc12 | inactive: > 76.9 µM |

| SMILES | Potency |
| --- | --- |
| CCOC(=O)CN(C(=O)CNC(=O)c1ccco1)C(C(=O)NC1CCCCC1)c1cccc(OC)c1 (stereo not given) | inactive: > 76.9 µM |
| COc1ccc(NCc2nnc(SCC(=O)N3CCCc4ccccc43)o2)cc1 | inactive: > 76.9 µM |
| O=C(COc1ccc(-n2cnnn2)cc1)NCCc1ccc(F)cc1 | inactive: > 76.9 µM |
| CCOc1cc(CNCC2CCCO2)cc(Br)c1OCC(N)=O (stereo not given) | inactive: > 76.9 µM |
| CC1C=CCC2C(=O)N(c3cccc(C(=O)N4CCN(c5ccc(F)cc5)CC4)c3)C(=O)C12 (stereo not given) | inactive |
| Cc1cc(NC(=O)c2ccc3nc(C)sc3c2)no1 | inactive: > 76.9 µM |
| CCOC(=O)CCc1cccc2c1CCC2=O | inactive: > 76.9 µM |
| CC1(C)CCCC2=C1CC1C(=O)N(c3ccccc3)C(=O)C1C2 (stereo not given) | inactive: > 76.9 µM |
| CC(=O)Nc1c(C(=O)NCc2ccccc2)nnn1Cc1ccccc1 | inactive: > 76.9 µM |
| CCc1nc2ccccc2n1Cc1cc(=O)n2cc(C)ccc2n1 | inactive: > 76.9 µM |
| Cc1onc(-c2ccccc2)c1C(=O)Oc1cccnc1 | inactive: > 76.9 µM |
| N#Cc1c(NC(=O)CSc2ncn(-c3ccccc3)n2)sc2c1CCCC2 | inactive: > 76.9 µM |
| CC(=O)C1C(c2cn(-c3ccccc3)nc2-c2cccs2)NC(=O)NC1(O)C(F)(F)F (stereo not given) | inactive: > 76.9 µM |
| Cc1ccc2[nH]c(=O)c(CN(Cc3nnnn3C3CCCC3)C3CCCCC3)cc2c1 | inactive |
| Cc1ccc(CCNc2ccccc2)c[n+]1[O-] | inactive: > 76.9 µM |
| Cc1cccc(-n2ccnc2SCC(=O)Nc2nccs2)c1C | inactive: > 76.9 µM |
| Cn1c(C(=O)O)c(CC(=O)Nc2ccc(F)cc2F)c2ccccc21 | inactive: > 76.9 µM |
| CN1CCc2c(sc3c2c(=O)n(-c2ccccc2)c2nnc(SCc4ccccc4F)n32)C1 | inactive: > 76.9 µM |
| CC(C)N(Cc1nc(-c2ccc(Cl)cc2)no1)C(=O)C12CC3CC(CC(C3)C1)C2 | inactive: > 76.9 µM |
| CC(C)Cn1c(N)c(C(=O)COC(=O)C2CCCCC2)c(=O)n(C)c1=O | inactive: > 76.9 µM |
